Results as given in patent US20230301999A1, “METHODS OF TREATING GOUT” (Horizon Therapeutics USA, Inc., priority 2020, published 2023).

Test system: adult patients with uncontrolled gout
Assay: Open-label study of pegloticase with MTX: serum uric acid observed values and change from baseline
Assay type: in vivo, human
Source text: KXX treatment typically is monitored using regular determination of the patient's SUA levels. A reduction in the serum uric acid level relative to the SUA in the patient before KXX treatment may generally be indicative of successful treatment with KXX, alone, or co-administered with an immunosuppressive agent or therapy, such as MTX, as described herein. Collection and measurement of a patient's serum uric acid levels are known to those of skill in the art. In some embodiments, the patient's serum uric acid levels are assayed before each KXX therapy. In some embodiments, any suitable method for collecting appropriate samples and methods of measuring or quantifying uric acid levels may be used in accordance with the disclosure.
Criteria for Evaluation: Efficacy was assessed by SUA levels, tender and swollen joint counts, patient and physician global assessments of gout, joint pain, and DECT.
Patients were administered oral MTX (15 mg/week) and folate (1 mg/day) 4 weeks prior to the first pegloticase infusion (Day 1) and throughout the pegloticase treatment period. Blood was drawn prior to each infusion to measure sUA level, monitor clinical parameters, and examine for ADA development. All patients followed typical IR prophylaxis protocols (fexofenadine one day before and the morning of each infusion and acetaminophen and IV corticosteroid the morning of each infusion). […] The primary study outcome was the proportion of responders, defined as sUA<6 mg/dL for at least 80% of the time during month 6 (weeks 20, 22, and 24). All analyses were performed on a modified intent-to-treat population, defined as patients who received ≥1 pegloticase infusion.

[1] = Month 6 sUA responders, Week 46 - Pre-Infusion, n=2
[2] = Month 6 sUA responders, Week 48 - Post-Infusion, n=3
[3] = Month 6 sUA responders, Week 48 - Pre-Infusion, n=2
[4] = Month 6 sUA responders, Week 50 - Post-Infusion, n=3
[5] = Month 6 sUA responders, Week 50 - Pre-Infusion, n=2
[6] = Month 6 sUA responders, Week 52/ET, n=2

## pegloticase
[1]
  sUA observed, mean: 0.30 mg/dL
  sUA observed, median: 0.30 mg/dL
[2]
  sUA < 6 mg/dL, %: (100%)
  sUA observed, median: 0.30 mg/dL
[3]
  sUA < 6 mg/dL, %: (100%)
  sUA observed, mean: 0.30 mg/dL
  sUA observed, median: 0.30 mg/dL
[4]
  sUA < 6 mg/dL, %: (100%)
  sUA observed, median: 0.30 mg/dL
[5]
  sUA < 6 mg/dL, %: (100%)
  sUA observed, mean: 0.30 mg/dL
  sUA observed, median: 0.30 mg/dL
[6]
  sUA < 6 mg/dL, %: (100%)
  sUA observed, mean: 0.30 mg/dL
  sUA observed, median: 0.30 mg/dL
Week 1
  sUA < 6 mg/dL, %: (100%)
  sUA Change from Baseline, Mean: -7.28 mg/dL
  sUA observed, mean: 0.30 mg/dL
  sUA observed, median: 0.30 mg/dL
Week 2 - Post-Infusion
  sUA < 6 mg/dL, %: (100%)
  sUA Change from Baseline, Mean: -8.86 mg/dL
  sUA observed, mean: 0.30 mg/dL
  sUA observed, median: 0.30 mg/dL
Week 2 - Pre-Infusion
  sUA < 6 mg/dL, %: (92.9%)
  sUA observed, mean: 1.26 mg/dL
  sUA observed, median: 0.30 mg/dL
Week 4 - Post-Infusion
  sUA < 6 mg/dL, %: (100%)
  sUA Change from Baseline, Mean: -8.92 mg/dL
  sUA observed, mean: 0.30 mg/dL
  sUA observed, median: 0.30 mg/dL
Week 4 - Pre-Infusion
  sUA < 6 mg/dL, %: (85.7%)
  sUA Change from Baseline, Mean: -7.54 mg/dL
  sUA change from baseline, median: -8.00 mg/dL
  sUA observed, mean: 1.61 mg/dL
  sUA observed, median: 0.30 mg/dL
Week 6 - Post-Infusion
  sUA < 6 mg/dL, %: (100%)
  sUA observed, mean: 0.30 mg/dL
  sUA observed, median: 0.30 mg/dL
Week 6 - Pre-Infusion
  sUA < 6 mg/dL, %: (92.3%)
  sUA Change from Baseline, Mean: -8.31 mg/dL
  sUA observed, mean: 0.91 mg/dL
  sUA observed, median: 0.30 mg/dL
Week 7
  sUA < 6 mg/dL, %: (100%)
  sUA observed, mean: 0.30 mg/dL
  sUA observed, median: 0.30 mg/dL
Week 8 - Post-Infusion
  sUA < 6 mg/dL, %: (100%)
  sUA observed, mean: 0.30 mg/dL
  sUA observed, median: 0.30 mg/dL
Week 8 - Pre-Infusion
  sUA < 6 mg/dL, %: (91.7%)
  sUA Change from Baseline, Mean: -8.20 mg/dL
  sUA observed, mean: 1.08 mg/dL
  sUA observed, median: 0.30 mg/dL
Week 10 - Post-Infusion
  sUA < 6 mg/dL, %: (100%)
  sUA observed, mean: 0.30 mg/dL
  sUA observed, median: 0.30 mg/dL
Week 10 - Pre-Infusion
  sUA < 6 mg/dL, %: (91.7%)
  sUA Change from Baseline, Mean: -8.33 mg/dL
  sUA observed, mean: 0.95 mg/dL
  sUA observed, median: 0.30 mg/dL
Week 12 - Post-Infusion
  sUA < 6 mg/dL, %: (100%)
  sUA observed, mean: 0.30 mg/dL
  sUA observed, median: 0.30 mg/dL
Week 12 - Pre-Infusion
  sUA < 6 mg/dL, %: (100%)
  sUA observed, mean: 0.30 mg/dL
  sUA observed, median: 0.30 mg/dL
Week 14 - Post-Infusion
  sUA < 6 mg/dL, %: (100%)
  sUA observed, mean: 0.30 mg/dL
  sUA observed, median: 0.30 mg/dL
Week 14 - Pre-Infusion
  sUA < 6 mg/dL, %: (100%)
  sUA observed, mean: 0.30 mg/dL
  sUA observed, median: 0.30 mg/dL
Week 16 - Post-Infusion
  sUA < 6 mg/dL, %: (100%)
  sUA observed, mean: 0.30 mg/dL
  sUA observed, median: 0.30 mg/dL
Week 16 - Pre-Infusion
  sUA < 6 mg/dL, %: (100%)
  sUA observed, mean: 0.30 mg/dL
  sUA observed, median: 0.30 mg/dL
Week 18 - Post-Infusion
  sUA < 6 mg/dL, %: (100%)
  sUA observed, mean: 0.30 mg/dL
  sUA observed, median: 0.30 mg/dL
Week 18 - Pre-Infusion
  sUA < 6 mg/dL, %: (100%)
  sUA observed, mean: 0.30 mg/dL
  sUA observed, median: 0.30 mg/dL
Week 20 - Post-Infusion
  sUA < 6 mg/dL, %: (100%)
  sUA observed, mean: 0.30 mg/dL
  sUA observed, median: 0.30 mg/dL
Week 20 - Pre-Infusion
  sUA < 6 mg/dL, %: (100%)
  sUA observed, mean: 0.30 mg/dL
  sUA observed, median: 0.30 mg/dL
Week 22 - Post-Infusion
  sUA < 6 mg/dL, %: (100%)
  sUA observed, mean: 0.30 mg/dL
  sUA observed, median: 0.30 mg/dL
Week 22 - Pre-Infusion
  sUA < 6 mg/dL, %: (100%)
  sUA observed, mean: 0.30 mg/dL
  sUA observed, median: 0.30 mg/dL
Week 24 - Post-Infusion
  sUA < 6 mg/dL, %: (100%)
  sUA observed, mean: 0.30 mg/dL
  sUA observed, median: 0.30 mg/dL
Week 24 - Pre-Infusion
  sUA < 6 mg/dL, %: (100%)
  sUA observed, mean: 0.30 mg/dL
  sUA observed, median: 0.30 mg/dL
Week 26 - Pre-Infusion
  sUA < 6 mg/dL, %: (100%)
  sUA observed, mean: 0.30 mg/dL
  sUA observed, median: 0.30 mg/dL
Week 28 - Pre-Infusion
  sUA < 6 mg/dL, %: (100%)
  sUA observed, mean: 0.30 mg/dL
  sUA observed, median: 0.30 mg/dL
Week 30 - Pre-Infusion
  sUA < 6 mg/dL, %: (100%)
  sUA observed, mean: 0.30 mg/dL
  sUA observed, median: 0.30 mg/dL
Week 32 - Post-Infusion
  sUA < 6 mg/dL, %: (100%)
  sUA observed, mean: 0.30 mg/dL
  sUA observed, median: 0.30 mg/dL
Week 32 - Pre-Infusion
  sUA < 6 mg/dL, %: (100%)
  sUA observed, mean: 0.30 mg/dL
  sUA observed, median: 0.30 mg/dL
Week 34 - Post-Infusion
  sUA < 6 mg/dL, %: (100%)
  sUA observed, mean: 0.30 mg/dL
  sUA observed, median: 0.30 mg/dL
Week 34 - Pre-Infusion
  sUA < 6 mg/dL, %: (100%)
  sUA observed, median: 0.30 mg/dL
Week 36 - Post-Infusion
  sUA < 6 mg/dL, %: (100%)
  sUA observed, mean: 0.30 mg/dL
  sUA observed, median: 0.30 mg/dL
Week 36 - Pre-Infusion
  sUA < 6 mg/dL, %: (88.9%)
  sUA observed, median: 0.30 mg/dL
Week 38 - Pre-Infusion
  sUA < 6 mg/dL, %: (100%)
  sUA observed, median: 0.30 mg/dL
Week 40 - Pre-Infusion
  sUA < 6 mg/dL, %: (100%)
  sUA observed, mean: 0.30 mg/dL
  sUA observed, median: 0.30 mg/dL
Week 42 - Pre-Infusion
  sUA < 6 mg/dL, %: (100%)
  sUA observed, mean: 0.30 mg/dL
  sUA observed, median: 0.30 mg/dL
Week 44 - Pre-Infusion
  sUA < 6 mg/dL, %: (100%)
  sUA observed, median: 0.30 mg/dL
Week 46 - Pre-Infusion
  sUA < 6 mg/dL, %: (100%)
  sUA observed, mean: 0.30 mg/dL
  sUA observed, median: 0.30 mg/dL
